Reference: PubChem BioAssay AID904 (National Center for Advancing Translational Sciences (NCATS), 2007)
The campaign covered roughly 55,000 compounds. About 530 (0.96%) were called active. The shares of active, inactive and inconclusive entries below differ from those in the screen. Calls follow the shape of the dose curve; as a rule, active = well fitted cell-killing curve with a large enough effect; inconclusive = small, poorly fitted or top-dose-only effect; inactive = no such curve, though single readings can be large or run the other way. Potencies beside an inconclusive call are fits to weak or partial responses and may not hold up.
Potency is read from the fitted curve at half-maximal effect; tags tell the direction and shape of the fitted curve.

Assay: qHTS Screen for Compounds that Selectively Target Cancer Cells with p53 Mutations: Cytotoxicity of p53 Null Cells at the Nonpermissive Temperature; also: nearly all actives have a fitted effect of over 50% in size;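 as to activity, negative = cell killing: 0% = DMSO only and -100% = full killing by 100 µM tamoxifen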
Details: H1299 p53-null (neo) cells, 39C, ATPlite viability, 24 h; activity, negative = cell killing: at 46.1 µM (top of the series)
Method in brief: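 Following overnight plating at 37C (600 cells/well), H1299-neo or H1299-p53A138V cells are dosed up to 46 uM. Incubation lasts 24 hr at 39C before ATP detection.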
For `COc1ccc(C)cc1Nc1nc(N)c2cc(OC)c(OC)cc2n1`, the Potency was active: 10 µM. For `CCN1CCN(Cc2c(O)ccc3cc(-c4ccc(OC)cc4)c(=O)oc23)CC1`, the Potency was inconclusive: 0.0158 µM [cytotoxic, full curve]. In the case of `COc1ccc(NC(=O)c2oc3ccccc3c2NC(=O)Cc2cccs2)c(OC)c1`, the Potency was inconclusive: 12.6 µM [cytotoxic, single point]. In the case of `Cn1c(=O)c2c(-c3ccc(Br)cc3)n(CCc3ccccc3)cc2n(C)c1=O`, the Potency was inconclusive: 12.6 µM [cytotoxic, single point]. With `CC(C)Cn1c(/C=C/c2ccccc2)nc2ccccc21` the Potency was “inactive”. For `CN(c1ccccc1)S(=O)(=O)c1nnc(NC(=O)C2CCCCC2)s1`, the Potency was inconclusive: 1.58 µM [cytotoxic, full curve, poor fit]. For `Cn1nc(C(=O)NCc2cccc(Cl)c2)c2c1-c1ccccc1S(=O)(=O)C2`, the Potency was inconclusive: 6.31 µM [cytotoxic, single point]. For `Cc1nn(CCCC(=O)NCCc2ccc(Cl)cc2)c(=O)c2c1sc1ccccc12`, the Potency was inconclusive: 14.1 µM [cytotoxic, single point]. With `CCOc1ccc(Nc2nc3c(S(=O)(=O)c4cccc(Cl)c4)nnn3c3ccsc23)cc1` the Potency was inconclusive: 0.0794 µM [cytotoxic, full curve]. In the case of `Fc1ccc(NCc2cccn2-c2nnc(N3CCOCC3)s2)cc1`, the Potency was “inactive”. With `O=C(NCCc1cccs1)c1ccc(Cn2c(SCc3ccc(F)cc3)nc3cccnc32)cc1` the Potency was inconclusive: 11.2 µM [cytotoxic, partial curve]. For `Cc1ccc2nc(N(Cc3cccnc3)C(=O)Cc3ccccc3)sc2c1`, the Potency was inconclusive: 0.316 µM [cytotoxic, full curve]. With `CCOCCCNC(=O)c1ccc2nc(CCc3ccccc3)oc2c1` the Potency was inconclusive: 1 µM [cytotoxic, full curve, poor fit]. For `CCc1c(C)sc2c1CCN(C(=O)Nc1cc(OC)c(OC)c(OC)c1)C2c1ccccc1` (stereo unspecified), the Potency was “inactive”. For `CC(=O)c1cccc(NS(=O)(=O)c2ccc3[nH]c4c(c3c2)CCCCCC4)c1`, the Potency was “inactive”. With `CCCCOc1ccc(CNC(=O)CN2CCSc3ccccc32)cc1` the Potency was inconclusive: 0.316 µM [cytotoxic, full curve, poor fit]. For `COc1ccc(-c2nc3nc(C)cc(Nc4ccc(C(C)=O)cc4)n3n2)cc1`, the Potency was inconclusive: 14.1 µM [cytotoxic, partial curve]. In the case of `COc1ccc(-c2c(C)nn3c(C(F)(F)F)cc(-c4ccc(Br)cc4)nc23)cc1`, the Potency was “inactive”. For `CCc1cccc(C)c1NC(=O)CN1CCCN(Cc2ccc(C)cc2)S1(=O)=O`, the Potency was inconclusive: 3.16 µM [cytotoxic, single point]. With `O=C(COc1ccccc1)Nc1ccc(C(=O)OCc2cc(=O)n3nc(C4CC4)sc3n2)cc1` the Potency was inconclusive: 0.316 µM [cytotoxic, full curve, poor fit]. In the case of `Cc1ccc(-n2ncc3c(NCCc4ccccc4)ncnc32)cc1C`, the Potency was inconclusive: 14.1 µM [cytotoxic, single point]. In the case of `CCOc1ccc(N(Cc2cc3cc(C)ccc3[nH]c2=O)C(=O)c2cccc(Cl)c2)cc1`, the Potency was inconclusive: 2 µM [cytotoxic, full curve, poor fit]. With `CC1CCCN(c2csc3ccccc3c2=O)C1` (stereo unspecified) the Potency was inconclusive: 6.31 µM [cytotoxic, partial curve, poor fit]. In the case of `Cc1ccc(C)c(N2CCN(C(=O)c3ccc4c(c3)c(C)c(C)n4C)CC2)c1`, the Potency was active: 25.1 µM. With `CCOc1ccccc1C1CC(=O)NC(C)=C1C(=O)OCc1ccc(C)cc1` (stereo unspecified) the Potency was “inactive”. For `COC(=O)CSc1ccc2nnc(CCNS(=O)(=O)c3ccc(C)cc3)n2n1`, the Potency was inconclusive: 31.6 µM [cytotoxic, single point]. In the case of `O=C(O)c1ccc2nc(-c3cc4cc(F)ccc4oc3=O)[nH]c2c1`, the Potency was “inactive”. For `Cc1ccc(-n2ccnc(NCCc3ccc(S(N)(=O)=O)cc3)c2=O)cc1C`, the Potency was “inactive”. For `CCOc1ccc(NC(=O)C(=O)NCCc2csc3nc(-c4ccccc4F)nn23)cc1`, the Potency was inconclusive: 0.0398 µM [cytotoxic, full curve]. With `CCc1ccc(NC(=O)C(=O)NCC(c2cccnc2)N2CCN(C)CC2)cc1` (stereo unspecified) the activity, negative = cell killing was inconclusive: -80.3% [cytotoxic]. For `Cn1ccc2c(OCC(=O)NCc3ccccc3Cl)cccc2c1=O`, the Potency was “inactive”. With `COc1ccc2c(c1)-c1nc(NC(=O)c3ccc(C)cc3)sc1CC2` the Potency was inconclusive: 1.26 µM [cytotoxic, full curve, poor fit]. With `CCOC(=O)c1ccc(NC(=O)CCS(=O)(=O)c2ccc3c(c2)oc(=O)n3C)cc1` the Potency was inconclusive: 15.8 µM [cytotoxic, partial curve]. In the case of `Cc1ccc(C)c(S(=O)(=O)NCC(c2ccco2)S(=O)(=O)c2ccc(F)cc2)c1` (stereo unspecified), the Potency was inconclusive: 0.0178 µM [cytotoxic, full curve, poor fit]. With `CCC1CCCCN1C(=O)c1nn(-c2ccc(C)cc2)c(=O)c2c1c1ccccc1n2C` (stereo unspecified) the Potency was “inactive”. In the case of `Cc1nc2c(C(=O)NCCc3ccc(Cl)cc3)c[nH]n2c(=O)c1Cc1ccccc1F`, the Potency was inconclusive: 20 µM [cytotoxic, single point]. In the case of `Cn1cc(-c2cc3n(n2)CCC(=O)N3CCCC(=O)Nc2ccc(F)cc2F)c2ccccc21`, the Potency was inconclusive: 4.47 µM [cytotoxic, partial curve, poor fit]. In the case of `N#Cc1ccc(OC(=O)c2cc(-c3ccc4c(c3)OCCO4)on2)cc1`, the Potency was inconclusive: 22.4 µM [cytotoxic, partial curve]. For `COc1cccc(CNC(=O)c2ccc3c(c2)nc2n3CCCCC2)c1OC`, the Potency was inconclusive: 12.6 µM [cytotoxic, partial curve, poor fit]. In the case of `CC1CCC2(CC1)N=C(c1ccccc1)C(=O)N2CC(=O)Nc1ccc(F)c(Cl)c1` (stereo unspecified), the Potency was inconclusive: 35.5 µM [cytotoxic, single point]. With `Cc1oc(-c2cccc(Cl)c2)nc1CN1CCCC(C(=O)NCc2ccc(Cl)cc2)C1` (stereo unspecified) the Potency was inconclusive: 15.8 µM [cytotoxic, single point].
